{"source": "ChEMBL document CHEMBL4888484", "about": "“Replenishing the malaria drug discovery pipeline: Screening and hit evaluation of the MMV Hit Generation Library 1 (HGL1) against asexual blood stage Plasmodium falciparum ,using a nano luciferase reporter read-out” (2022)", "note": "Hit rate of the full screen: of about 150,000 compounds, about 540 (0.36%) showed an effect of 50% or more. This is one part of the list."}
{"test_system": "Plasmodium falciparum", "test": "Primary screen in NF54 nanoGlo assay, in single point, at 2uM, 72h; a lower Z score goes with more inhibition", "assay_type": "functional, Erythrocyte", "settings": "timepoint 72 hour", "units": {"% Inhibition": "%"}}
{"smiles": "C/C(C(=O)Nc1ccc(C(=O)c2ccccc2)cc1N)=C(/C)c1nc2cc(C(=O)c3ccccc3)ccc2[nH]1", "% Inhibition": -20, "Z score": 2.31}
{"smiles": "CC(C)(C)NC(=O)CNC(=O)c1cccc(Cl)c1", "% Inhibition": -8, "Z score": 0.68}
{"smiles": "Cc1cc(C(=O)Nc2ccc3nc(C)sc3c2)no1", "% Inhibition": -6, "Z score": 0.54}
{"smiles": "O=C1O[C@H]2CN(c3ccc(Cl)cn3)C[C@H]2N1Cc1ccccn1", "% Inhibition": 3, "Z score": -0.53}
{"smiles": "CC(NC(=O)NC1Cc2ccccc2N(C)C1=O)C1Oc2ccccc2C1C", "note": "(stereo unspecified)", "% Inhibition": -13, "Z score": 2.34}
{"smiles": "O=C(C[C@H]1c2ncccc2C(=O)N1Cc1ccc(F)cc1)NCc1ccccc1", "% Inhibition": -12, "Z score": 2.28}
{"smiles": "CCc1nnc(N2CCC[C@@]3(CCC(=O)N(CCc4ccccc4)C3)C2)s1", "% Inhibition": 5, "Z score": -0.66}
{"smiles": "O=C1N[C@H]2CCC[C@@H]1CN(CC(=O)N1CCc3ccccc31)C2", "% Inhibition": 2, "Z score": -0.34}
{"smiles": "O=S(=O)(N[C@H]1CC12CCNCC2)c1ccc(CC(F)(F)F)cc1", "% Inhibition": -6, "Z score": 0.69}
{"smiles": "COc1ccc(Cn2nc(C)cc2NC(=O)NCc2cc(C)on2)cc1OC", "% Inhibition": -12, "Z score": 1.62}
{"smiles": "CO[C@@H](C)c1nc(CN(C)c2ncnc(-n3cccn3)c2N)cs1", "% Inhibition": -4, "Z score": 0.51}
{"smiles": "Cc1oc(-c2cc(F)cc(F)c2)nc1CN1CCc2n[nH]cc2C1", "% Inhibition": -12, "Z score": 2.46}
{"smiles": "CC(C)C1CCN(C(=O)c2cccc(-n3cc[nH]c3=O)c2)CC1", "% Inhibition": -9, "Z score": 1.7}
{"smiles": "C[C@H](NS(=O)(=O)c1cccc(-n2cnnn2)c1)c1ccncc1", "% Inhibition": -2, "Z score": 0.23}
{"smiles": "O=C(O)C[C@H](NCc1cnn(Cc2ccccc2Cl)c1)c1ccsc1", "% Inhibition": -12, "Z score": 1.19}
{"smiles": "O=C(CN1C(=O)c2cc(Cl)c(Cl)cc2C1=O)N1CCc2ccccc2C1", "% Inhibition": 4, "Z score": -0.8}
{"smiles": "CCOC1=C(CN(C)C)[C@@H](c2ccc(F)cc2)Oc2ccccc21", "% Inhibition": -5, "Z score": 0.62}
{"smiles": "COc1ccc(OC)c(C(=O)N(C2CCCC2)C2CC2)c1", "% Inhibition": -8, "Z score": 1.18}
{"smiles": "CN(C)Cc1csc(CNC(=O)N[C@H]2CC23CCCCC3)n1", "% Inhibition": -5, "Z score": 0.81}
{"smiles": "Cc1nn(-c2nc3ccccc3s2)c(O)c1C(c1ccc(Cl)c(Cl)c1)c1c(C)nn(-c2nc3ccccc3s2)c1O", "% Inhibition": -10, "Z score": 0.88}
{"smiles": "COCCN(C)c1nnc(C2COCCO2)n1CC1CCC(C)C1", "note": "(stereo unspecified)", "% Inhibition": -8, "Z score": 1.04}
{"smiles": "CCCS(=O)(=O)NCc1cccnc1N1CCCCCCC1", "% Inhibition": -8, "Z score": 0.9}
{"smiles": "CCc1ccccc1/N=C(/NCc1ccccn1)NC(=O)c1ccc2c(c1)OCO2", "% Inhibition": -10, "Z score": 0.93}
{"smiles": "CCc1noc(C)c1C(=O)N[C@H]1CC(=O)N(CC2CCCCC2)C1", "% Inhibition": -7, "Z score": 1.26}
{"smiles": "CC1CC(C)CN(S(=O)(=O)c2ccc(S(=O)(=O)Nc3ccon3)cc2)C1", "note": "(stereo unspecified)", "% Inhibition": -6, "Z score": 0.92}
{"smiles": "CCC[C@H](NC1CCN(C(=O)OCC)CC1)c1nccn1C", "% Inhibition": -9, "Z score": 1.4}
{"smiles": "CCCc1sc(C(=O)Nc2nnc(C3CC3)s2)cc1CC", "% Inhibition": -10, "Z score": 1.24}
{"smiles": "CCc1cc(-c2nccn2-c2cccc(-c3nc(CC)no3)c2)on1", "% Inhibition": 5, "Z score": -0.96}
{"smiles": "Cc1ccc2nc(-c3ccccc3)c(CN3CCOCC3)c(O)c2c1", "% Inhibition": 9, "Z score": -1.13}
{"smiles": "CC(NC1CC2CCCCN2C1=O)c1ccc(C(F)F)nc1", "note": "(stereo unspecified)", "% Inhibition": 5, "Z score": -0.74}
{"smiles": "Cc1cc(CCNC(=O)N2CCOC(C(F)(F)F)C2C)cc(C)c1O", "note": "(stereo unspecified)", "% Inhibition": -17, "Z score": 3.33}
{"smiles": "Cn1cccc1C(=O)N1CCN(Cc2ccncc2)[C@@H]2CS(=O)(=O)C[C@@H]21", "% Inhibition": -8, "Z score": 1.54}
{"smiles": "C[C@@H](Cc1nc(CC2CCN(C)CC2)nn1CCO)c1ccccc1", "% Inhibition": 1, "Z score": -0.16}
{"smiles": "COCCN1C[C@@H](Cc2ccnc3c(C)c(C)ccc23)CC1=O", "% Inhibition": 1, "Z score": -0.19}
{"smiles": "CC(C)n1ccnc1CN(C)CCCN1CCCCCC1", "% Inhibition": -3, "Z score": 0.52}
{"smiles": "COc1ccc(F)cc1S(=O)(=O)N1CC(=O)N2C[C@@H](OC)C[C@H]2C1", "% Inhibition": -6, "Z score": 0.86}
{"smiles": "COc1ccc(CCNC(=O)[C@H]2CC[C@H](Cn3c(=O)[nH]c4ccccc4c3=O)CC2)cc1", "% Inhibition": -1, "Z score": 0.13}
{"smiles": "Cc1cc(C)nc(-n2nc(C)c(CC(=O)N(C)C3CCCC3)c2C)n1", "% Inhibition": -6, "Z score": 0.88}
{"smiles": "COc1ccc(O[C@H]2CCN(C(=O)NCc3ccc(F)cc3)C2)nn1", "% Inhibition": -8, "Z score": 0.92}
{"smiles": "CCOC1(C)CN(c2ncnc3scc(C)c23)C1", "% Inhibition": 2, "Z score": -0.28}
{"smiles": "CCCc1nn(-c2ccccc2)c(=O)n1CC(=O)NCc1ccccc1F", "% Inhibition": 0, "Z score": -0.07}
{"smiles": "CCC1CN(S(=O)(=O)CCc2c(F)cccc2F)CC2(CCOC2)O1", "note": "(stereo unspecified)", "% Inhibition": -10, "Z score": 1.51}
{"smiles": "Cc1cnc(CN2C[C@]3(CCCN(C(=O)c4ccoc4)C3)CCC2=O)cn1", "% Inhibition": -8, "Z score": 1.49}
{"smiles": "CCCCNC(=O)c1nc(C)c(C)nc1C(=O)Nc1cccc(Cl)c1", "% Inhibition": -29, "Z score": 3.43}
{"smiles": "Cc1cc(C)n(CCn2ccnc2-c2cccc(-n3cccn3)c2)n1", "% Inhibition": -23, "Z score": 2.91}
{"smiles": "Cc1nccn1-c1ccnc(C(=O)NC[C@H]2CCCCN2CCO)c1", "% Inhibition": 22, "Z score": -2.76}
{"smiles": "Cc1cccc2c1ccn2CCNC(=O)CCCC(=O)N1CCN(c2ccccn2)CC1", "% Inhibition": -13, "Z score": 1.86}
{"smiles": "CCCc1cc(O)n2nc(N3CCOCC3)c(C#N)c2n1", "% Inhibition": -12, "Z score": 1.71}
{"smiles": "COc1ccc2cc1Oc1cccc(c1)CO[C@H]1CCN(C(=O)CCN3CCCC3=O)C[C@H]1NC(=O)CC2", "% Inhibition": -6, "Z score": 1.07}
{"smiles": "NC(=O)c1ccccc1OCC#CCNC(=O)c1ccc(=O)[nH]c1", "% Inhibition": -17, "Z score": 2.13}
{"smiles": "C[C@@]1(C(=O)NC2CCCCCC2)Cn2c(cc3occc32)C(=O)N1Cc1cccnc1", "% Inhibition": -17, "Z score": 3.28}
{"smiles": "Cc1ccccc1OC[C@H](C)NC(=O)N(C)CC(C)(C)O", "% Inhibition": -6, "Z score": 0.8}
{"smiles": "Cc1cc(CNC(=O)N(C)Cc2c(C)noc2C)no1", "% Inhibition": 0, "Z score": 0.02}
{"smiles": "Clc1cnc(N[C@@H]2COCC[C@@H]2OCc2ccccc2)nc1", "% Inhibition": -12, "Z score": 2.33}
{"smiles": "Cc1ccccc1CC(C)(C)NC(=O)N[C@H]1CCS(=O)(=O)C1", "% Inhibition": 1, "Z score": -0.17}
{"smiles": "COC(=O)[C@@H]1CCCCN1CC(=O)Nc1cc(C2CCCC2)nn1-c1ccccc1", "% Inhibition": 9, "Z score": -1.16}
{"smiles": "CN(CCc1cnn(C)c1)Cc1ccc(-n2cccn2)cc1", "% Inhibition": 4, "Z score": -0.8}
{"smiles": "CN(Cc1ccc(Cl)cc1)CN1C(=O)C2C=CC1C2", "note": "(stereo unspecified)", "% Inhibition": -5, "Z score": 0.68}
{"smiles": "COc1ccc(OC[C@@H](O)CN2CCC(O)CC2)c(CNC2(c3ccccc3)CC2)c1", "% Inhibition": -3, "Z score": 0.48}
{"smiles": "Cc1cc(NC(=O)c2ccnc(OC3CCOCC3)c2)sn1", "% Inhibition": -6, "Z score": 1.13}
{"smiles": "Cc1ccc([C@@H]2C=C(c3ccccc3)N(CC(=O)Nc3ccccc3)c3nnnn32)cc1", "% Inhibition": -5, "Z score": 0.8}
{"smiles": "CN1CCN(C(=O)[C@H]2C[C@@](C)(C(=O)O)N(C)[C@H]2c2ccc(Cl)cc2)CC1", "% Inhibition": -12, "Z score": 1.42}
{"smiles": "Cc1cc(C)c(NC(=O)CN2c3ccccc3N(C3CC3)S2(=O)=O)c(C)c1", "% Inhibition": -4, "Z score": 0.43}
{"smiles": "CC(C)c1nn(-c2ccccc2)c(Oc2cccc(F)c2)c1CN(CC1CC1)C(=O)c1ccco1", "% Inhibition": -13, "Z score": 1.18}
{"smiles": "COCC(C)(C)NC(=O)c1cccc(Br)c1C", "% Inhibition": -8, "Z score": 0.84}
{"smiles": "Cc1ccc(-c2noc(CN3CCc4sccc4C3)n2)cc1", "% Inhibition": -13, "Z score": 1.43}
{"smiles": "COc1cc(Cl)c(C)cc1-n1cc(C2CC2)nn1", "% Inhibition": -9, "Z score": 1.05}
{"smiles": "CCC[C@]1(COC)CCCN1Cc1nc(CS(C)(=O)=O)no1", "% Inhibition": -7, "Z score": 1.19}
{"smiles": "CN1CCCC(CN2C(=O)CN(C3CC3)C2=O)C1c1cccc(Cl)c1", "note": "(stereo unspecified)", "% Inhibition": -1, "Z score": 0.07}
{"smiles": "O=C(CCc1cccs1)N1CCC2(CC1)[C@H](O)C[C@@H]2O", "% Inhibition": -9, "Z score": 1.48}
{"smiles": "Cc1noc(C)c1N(C)C[C@@H]1CCC(=O)N1", "% Inhibition": 7, "Z score": -1.06}
{"smiles": "Cc1cccc(Cn2nc(CC(C)C)nc2CC2CNC2)c1", "% Inhibition": 2, "Z score": -0.29}
{"smiles": "Cc1cccc(Cl)c1NC(=O)[C@H](C)N1Cc2cnn(C)c2CC(C)(C)C1", "% Inhibition": -5, "Z score": 0.59}
{"smiles": "O=C(CN1CCCC[C@H]1c1nc(C2CC2)no1)Nc1cccnc1", "% Inhibition": -7, "Z score": 1.26}
{"smiles": "COc1cccc(CNS(=O)(=O)c2ccc3c(c2)OC[C@@H](C(=O)N2CCCCC2)O3)c1", "% Inhibition": -12, "Z score": 1.99}
{"smiles": "CN=C(NCc1nc(C)no1)NCc1ccccc1OC(C)(C)C", "% Inhibition": -8, "Z score": 0.86}
{"smiles": "COCCOCCOc1ccc(CONC(=O)Cc2cccc3ccccc23)cc1", "% Inhibition": -1, "Z score": 0.08}
{"smiles": "Cc1cnc(CN2C[C@]3(CCCN(C(=O)CC(F)(F)F)C3)CCC2=O)cn1", "% Inhibition": -13, "Z score": 1.9}
{"smiles": "COc1ccc(CNC(=O)COCCc2ccccc2)c(OC)c1", "% Inhibition": 4, "Z score": -0.44}
{"smiles": "Cn1c(COc2ccc(F)cc2)nnc1N1CCOC(C)(C)C1", "% Inhibition": -4, "Z score": 0.41}
{"smiles": "NCCn1cc(C(=O)N[C@H]2CCC[C@H]2Cc2ccc(F)cc2)nn1", "% Inhibition": -3, "Z score": 0.58}
{"smiles": "CCCn1nc(C(=O)N2CCCN(C(C)=O)CC2)ccc1=O", "% Inhibition": -11, "Z score": 1.84}
{"smiles": "CC(C)(Cc1ccc(O)cc1)C(=O)N1CCOc2ncccc2C1", "% Inhibition": -3, "Z score": 0.56}
